Measurements published in PubChem BioAssay AID662 (National Center for Advancing Translational Sciences (NCATS), 2007).
Among all 71,000 compounds or so, about 1,800 (2.5%) were called active. Inconclusive means that the source gave no clear call. Such entries were picked first, then a sample of the others. Calls come from the whole dose curve; as a rule, active = well fitted activation curve with a large enough effect in the signal ratio, with a control signal flat (not every such curve was filed as active); inconclusive = small, poorly fitted or top-dose-only effect, or effect the other way, or a change in a side signal; inactive = flat fitted curve, though single readings scatter; the % refers to the signal ratio. Potencies of inconclusive entries are doubtful fits and often do not repeat.
Potency is the fitted concentration of half-maximal effect; tags give direction and shape of the fitted curve.

Test: Cell signaling CRE-BLA (Fsk stim); for activity change, negative = inhibition: % of control where 0% means no effect
Details: CHO CRE-bla reporter (cAMP response element driving beta-lactamase), forskolin EC10, beta-lactamase ratio; activity change, negative = inhibition: at 38.2 µM (top of the series) unless noted
Method in brief: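 Cells were plated overnight at 37 °C, exposed to compound titrations plus EC10 NKH 477 for 3 h, then given CCF4 dye for 2 h at room temperature. Blue/green (460/530 nm) ratio was converted to %Activity and AC50 values calculated.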
For O=C(c1ccco1)N1CCN(c2ncnc3scc(-c4cccs4)c23)CC1, the Potency was inconclusive: 12.6 µM [rising, single point]. With O=C(CCN1CCN(c2ccccn2)CC1)Nc1ccc(F)cc1 the activity change, negative = inhibition was inconclusive: -28.5%. With COc1ccc2oc(=O)cc(C)c2c1 the “activity change, negative = inhibition” value was inactive: 3.66%. In the case of CCCCn1c(N)c(N(CCC(C)C)C(=O)CSc2nnc3ccccn23)c(=O)[nH]c1=O, the Potency is reported as inconclusive: 3.16 µM [rising, single point]. For CC(C)Oc1cc(O)c2c(c1)OCC=C2CCC(=O)O, the activity change, negative = inhibition was inactive: -6.88% [at 7.6 µM]. In the case of CC(NC(=O)c1cccs1)C(c1cccs1)N1CCN(Cc2ccccc2)CC1 (configuration not stated), the activity change, negative = inhibition is reported as inconclusive: -3.62%. In the case of CN(Cc1ccccc1)Cc1nc2c(c(=O)n(C)c(=O)n2C)n1Cc1ccc(F)cc1, the Potency is reported as inconclusive: 12.6 µM [rising, partial curve]. In the case of CCC(C)NC(=O)C1CCN(S(=O)(=O)c2cccnc2)CC1 (configuration not stated), the activity change, negative = inhibition is reported as inconclusive: 28.8%. For O=C(Cc1c(F)cccc1Cl)N1CCN(C(=O)c2ccco2)CC1, the activity change, negative = inhibition was inconclusive: -17.8%. In the case of Cc1ccc(C2=CC(c3ccc(N(C)C)cc3)n3nnnc3N2)cc1 (configuration not stated), the Potency is reported as inconclusive: 7.94 µM [rising, partial curve]. For CN1CCN(CN2C(=O)C3C4C=CC(C3C2=O)C2C3C(=O)N(CN5CCN(C)CC5)C(=O)C3C42)CC1 (configuration not stated), the activity change, negative = inhibition was inactive: 10.4% [at 7.6 µM]. With Cc1cnc(CNc2nc(-c3ccccc3Cl)nc3ccccc23)cn1 the Potency was inconclusive: 15.8 µM [rising, partial curve, poor fit]. For O=S(=O)(Cc1ccccc1)N1CCCCCC1, the Potency was inconclusive: 12.6 µM [rising, single point]. With Cc1cccc2cc3c(NC(=O)CC(C)C)nn(C)c3nc12 the Potency was active: 10 µM. In the case of Cc1[nH]c2ccccc2c1-c1cc(-c2cc(-c3c(C)[nH]c4ccccc34)nc(N)n2)nc(N)n1, the Potency is reported as inconclusive: 5.01 µM [rising, single point]. With C[C@@H](C(=O)O)c1ccc(C(=O)c2ccccc2)s1 the “activity change, negative = inhibition” value was inactive: -2.8% [at 17.1 µM]. For COc1ccc2[nH]c(=O)c(CN(C(C)=O)c3cccc(C)c3)cc2c1, the activity change, negative = inhibition was inconclusive: 22.7%. With CC(C)CCSc1nc2c(c(=O)[nH]c(=O)n2C)n1CCCc1ccccc1 the Potency was active: 3.16 µM. In the case of COc1ccc(CNC(=O)c2cc(-c3ccco3)on2)cc1, the activity change, negative = inhibition is reported as inconclusive: -1.13%. In the case of Nc1nc(Cl)nc2c1ncn2[C@@H]1O[C@@H](COP(=O)(O)OP(=O)(O)OP(=O)(O)O)[C@@H](O)[C@H]1O, the “activity change, negative = inhibition” value is reported as inactive: 7.77%. With CC(=O)N1CC2(C)CN(C(C)=O)CC(C)(C1)C2 the activity change, negative = inhibition was inconclusive: 2.29%. In the case of O=c1c(-c2ccccc2)nc2cnc(N3CCOCC3)nc2n1-c1ccccc1, the Potency is reported as inconclusive: 2.51 µM [rising, full curve]. With O=C1CCCCCN1Cc1nnc(SCc2nc3ccccc3s2)n1-c1ccccn1 the activity change, negative = inhibition was inconclusive: 2.1%. For COc1ccc2[nH]c(=O)c(CN(CCCN3CCOCC3)C(=O)NCc3ccccc3)cc2c1, the “activity change, negative = inhibition” value was inactive: 0.343%. In the case of Cc1nn2c3ccccc3nc2c2ccccc12, the Potency is reported as inconclusive: 12.6 µM [rising, partial curve]. In the case of O=C(Cn1cnc2c(nnn2-c2ccc(F)cc2)c1=O)NCc1ccco1, the activity change, negative = inhibition is reported as inconclusive: -12.6%. In the case of c1ccc2c(c1)nnn2-c1ncnc2sc3c(c12)CCCC3, the Potency is reported as inconclusive: 3.16 µM [falling, full curve, poor fit]. For COc1ccc2cc3cc(C(=O)NCCc4ccc(OC)c(OC)c4)oc3nc2c1, the Potency was active: 3.16 µM. For O=c1cc(Nc2ccc3c(c2)OCO3)[nH]c(=O)n1-c1ccc(Br)cc1, the “activity change, negative = inhibition” value was inactive: 3.55%. With O=C(Nc1ccccn1)c1cccc(S(=O)(=O)N2CCCCC2)c1 the activity change, negative = inhibition was inconclusive: 6.42% [at 7.6 µM]. In the case of O=C(CCn1nnc2ccccc21)Nc1nnc(Cc2ccccc2)s1, the activity change, negative = inhibition is reported as inconclusive: 3.47%. With Cn1c(CN2CCCCC2)nc2cc(NC(=O)c3ccc(F)cc3)ccc21 the “activity change, negative = inhibition” value was inactive: 14.8%. For Cn1c(CCNC(=O)c2ccccc2F)nnc1SCc1nc2ccccc2c(=O)[nH]1, the activity change, negative = inhibition was inconclusive: 12%. With c1cncc(-c2nnc3n2CCC3)c1 the Potency was inconclusive: 2.51 µM [falling, partial curve]. For C=CCn1nnc2sc3c(c2c1=O)CCC(C)C3 (configuration not stated), the Potency was inconclusive: 10 µM [rising, partial curve]. With COc1ccccc1C(=O)NCC(=O)Nc1ccccc1 the activity change, negative = inhibition was inconclusive: -22.2%. In the case of Nc1cc(-c2ccccc2)ccc1O, the “activity change, negative = inhibition” value is reported as inactive: -2.43%. For COCC(=O)N1CCC2(CCCN(C(=O)Nc3cccc(F)c3)C2)CC1, the activity change, negative = inhibition was inconclusive: -5.4%. With CN(c1ccccc1)c1ccc(/C=c2\s/c(=C(/C#N)C(=O)C(C)(C)C)n(Cc3ccco3)c2=O)cc1 the Potency was inconclusive: 3.98 µM [falling, partial curve]. In the case of COc1ccccc1NC(=O)N1CCC(C(=O)c2ccc(F)cc2)CC1, the “activity change, negative = inhibition” value is reported as inactive: -18.4%. For CC(=O)Nc1cccc(NC(=O)C2CC(=O)N(c3ccc(C)cc3)C2)c1 (configuration not stated), the “activity change, negative = inhibition” value was inactive: -1.19%. With c1ccc(Cc2ccc(OCCn3cncn3)cc2)cc1 the activity change, negative = inhibition was inconclusive: 13.6%. For Cc1ccc(S(=O)(=O)N(CCC#N)CCN2CCCC2)cc1, the “activity change, negative = inhibition” value was inactive: -2.93%. With COCC(=O)Nc1sc2c(c1C(=O)OC)CCCC2 the Potency was inconclusive: 15.8 µM [rising, single point]. For CS(=O)(=O)Nc1cccc(-c2nc(N3CCNCC3)c3ccccc3n2)c1, the Potency was active: 12.6 µM. With O=C(O)CCc1nc(-c2ccccc2Cl)no1 the Potency was inconclusive: 6.31 µM [falling, single point]. In the case of COc1ccc2cc(C(c3nnnn3CCc3ccccc3)N3CCCC(C)C3)c(=O)[nH]c2c1 (configuration not stated), the activity change, negative = inhibition is reported as inconclusive: 11.9%. For Cc1cc(C(=O)CSc2nnc(-c3cccs3)n2Cc2ccccc2)c(C)n1C, the “activity change, negative = inhibition” value was inactive: 21.6%. For COc1ccc(NC(=O)N2CCCC3(CCN(S(C)(=O)=O)CC3)C2)cc1, the “activity change, negative = inhibition” value was inactive: 2.66%. For Cc1sc2nc(-c3ccco3)oc(=O)c2c1C, the activity change, negative = inhibition was inconclusive: 8.44%. In the case of COc1ccc(-c2nnc(SCc3nnc(-c4ccc(Cl)cc4)o3)n2-c2ccccc2)cc1, the “activity change, negative = inhibition” value is reported as inactive: -12.9%. For COc1ccc(C2CC(=O)C3=C(C2)Nc2ncnn2C3c2ccccc2)cc1 (configuration not stated), the “activity change, negative = inhibition” value was inactive: -6.18%.
